The results in this text go back to the GPR68 mutational scans of Howard et al. (2025).

To fix the notation:
B1: GPR68, Q15743 (parent)
chain: MGNITADNSSMSCTIDHTIHQTLAPVVYVTVLVVGFPANCLSLYFGYLQIKARNELGVYLCNLTVADLFYICSLPFWLQYVLQHDNWSHGDLSCQVCGILLYENIYISVGFLCCISVDRYLAVAHPFRFHQFRTLKAAVGVSVVIWAKELLTSIYFLMHEEVIEDENQHRVCFEHYPIQAWQRAINYYRFLVGFLFPICLLLASYQGILRAVRRSHGTQKSRKDQIQRLVLSTVVIFLACFLPYHVLLLVRSVWEASCDFAKGVFNAYHFSLLLTSFNCVADPVLYCFVSETTHRDLARLRGACLAFLTCSRTGRAREAYPLGAPEASGKSGAQGEEPELLTKLHPAFQTPNSPGSGGFPTGRLA

In series [1] the parent is B1. Briefly: cAMP reporter score (Enrich2 score, wild type = 0); higher = more signal; HEK293T, FACS bins.
The variants in series [2] derive from B1. Briefly: surface expression score (Enrich2 score, wild type = 0); higher = more signal; HEK293T, FACS bins.

The least precise scores are not listed. Not listed are two conditions whose scores span a narrow range. Read del as a deletion of the residues named and ins as an insertion between two positions. For part of these data: The data file names ogerin without a concentration.

As for S215_H216insG, the cAMP reporter score in series [1] (pH 5.5) was -0.671; in series [1] (pH 6, modulator: ogerin) it was -1.6; in series [1] (pH 6.5, modulator: ogerin), -1.84.
Turning to R210_A211insGSG, the cAMP reporter score is -1.53 in series [1] (pH 5.5); -1.43 in series [1] (pH 6); -1.14 in series [1] (pH 6, modulator: ogerin); -0.81 in series [1] (pH 6.5, modulator: ogerin). Further, the surface expression score in series [2] is -1.04.
As to R213_R214insGS, the cAMP reporter score was -1.45 in series [1] (pH 5.5); -1.04 in series [1] (pH 6); -1.4 in series [1] (pH 6, modulator: ogerin); -0.686 in series [1] (pH 6.5, modulator: ogerin). Besides, the surface expression score in series [2] worked out at 0.632.
A211_V212insG: the cAMP reporter score in series [1] (pH 5.5) was -1.01; in series [1] (pH 6) it was -1.62; in series [1] (pH 6.5, modulator: ogerin), -2.37. Further, in series [2], the surface expression score stood at 0.146.
As to R210_A211del, the cAMP reporter score in series [1] (pH 5.5) is -0.537; in series [1] (pH 6), -1.14; in series [1] (pH 6, modulator: ogerin) it was -0.852; in series [1] (pH 6.5, modulator: ogerin), -0.213.
Regarding L200Y, the cAMP reporter score in series [1] (pH 5.5) is -0.207; in series [1] (pH 6), -0.942; in series [1] (pH 6, modulator: ogerin), -2.03; in series [1] (pH 6.5, modulator: ogerin) it was -0.682. Moreover, the surface expression score in series [2] was -1.81.
On to L200V, for which the cAMP reporter score in series [1] (pH 5.5) was -0.736; in series [1] (pH 6), 0.111; in series [1] (pH 6, modulator: ogerin) it was -0.456; in series [1] (pH 6.5, modulator: ogerin), -0.623. Further, in series [2], the surface expression score is -0.696.
For L200_L201del the same measures were -1.42, -1.65, -1.43, -1.2 and -2.63.
With Y205del, the cAMP reporter score was -2.13 in series [1] (pH 5.5); -1.74 in series [1] (pH 6); -1.96 in series [1] (pH 6.5, modulator: ogerin). In addition, the surface expression score in series [2] was -2.73.
Turning to G207_I208del, the cAMP reporter score is -1.24 in series [1] (pH 5.5); -0.768 in series [1] (pH 6); -1.5 in series [1] (pH 6, modulator: ogerin); -0.366 in series [1] (pH 6.5, modulator: ogerin). Further, the surface expression score in series [2] is -2.73.
With G207_I208insGS, the cAMP reporter score in series [1] (pH 5.5) was -1.71; in series [1] (pH 6), -1.53; in series [1] (pH 6, modulator: ogerin), -0.626; in series [1] (pH 6.5, modulator: ogerin) it was -1.47. For the same variant, the surface expression score in series [2] is -2.56.
On to L209_R210insGSG, for which the cAMP reporter score in series [1] (pH 5.5) was -1.12; in series [1] (pH 6), -1.42; in series [1] (pH 6, modulator: ogerin) it was -1.87; in series [1] (pH 6.5, modulator: ogerin), -1.57. For the same variant, in series [2], the surface expression score is -2.19.
On to V212_R213insGSG, for which the cAMP reporter score was -1.93 in series [1] (pH 5.5); -1.54 in series [1] (pH 6); -1.56 in series [1] (pH 6, modulator: ogerin); -0.428 in series [1] (pH 6.5, modulator: ogerin). Also, in series [2], the surface expression score is -0.252.
Take L209_R210del: the cAMP reporter score was -1.58 in series [1] (pH 5.5); -1.71 in series [1] (pH 6); -1.5 in series [1] (pH 6, modulator: ogerin); -1.46 in series [1] (pH 6.5, modulator: ogerin). Also, in series [2], the surface expression score was -1.67.
L202_S204del: the cAMP reporter score in series [1] (pH 5.5) was -1.32; in series [1] (pH 6, modulator: ogerin), -1.67; in series [1] (pH 6.5, modulator: ogerin), -0.994. For the same variant, the surface expression score in series [2] is -2.66.
For the variant A203_S204insGSG, the cAMP reporter score is -0.966 in series [1] (pH 5.5); -1.52 in series [1] (pH 6); -1.12 in series [1] (pH 6, modulator: ogerin); -1.1 in series [1] (pH 6.5, modulator: ogerin). In series [2], the surface expression score was -2.66.
With L202_A203insGSG, the cAMP reporter score in series [1] (pH 5.5) was -0.879. For the same variant, the surface expression score in series [2] is -2.54.
In the case of Q206E, the cAMP reporter score in series [1] (pH 5.5) is 0.119; in series [1] (pH 6), -0.179; in series [1] (pH 6, modulator: ogerin) it was 0.12; in series [1] (pH 6.5, modulator: ogerin) it was -0.501. Moreover, in series [2], the surface expression score was -1.6.
Consider Q206H, for which the cAMP reporter score was 0.766 in series [1] (pH 5.5); 1.19 in series [1] (pH 6); 1.11 in series [1] (pH 6, modulator: ogerin); 1.58 in series [1] (pH 6.5, modulator: ogerin). In series [2], the surface expression score is 1.23.
With Q206R, the cAMP reporter score in series [1] (pH 5.5) was 2.36; in series [1] (pH 6), 1.48; in series [1] (pH 6, modulator: ogerin), -0.439; in series [1] (pH 6.5, modulator: ogerin) it was 0.037. Besides, the surface expression score in series [2] was 0.672.
As for Q206K, the cAMP reporter score in series [1] (pH 5.5) was 0.01; in series [1] (pH 6, modulator: ogerin), -0.829; in series [1] (pH 6.5, modulator: ogerin) it was -0.371. Besides, in series [2], the surface expression score is -0.121.
For Q206I, the cAMP reporter score in series [1] (pH 5.5) was 0.095; in series [1] (pH 6), -0.248; in series [1] (pH 6, modulator: ogerin) it was 0.465; in series [1] (pH 6.5, modulator: ogerin), 0.498. Also, the surface expression score in series [2] was found to be 1.54.
For Q206G the same measures were 0.711, -0.146, 0.311, 1.45 and 1.45.
Take Q206W: the cAMP reporter score in series [1] (pH 5.5) came out at 0.27; in series [1] (pH 6, modulator: ogerin), 1.11; in series [1] (pH 6.5, modulator: ogerin) it was 1.92. Moreover, in series [2], the surface expression score came to 1.57.
With Q206C, the cAMP reporter score was 0.476 in series [1] (pH 5.5); -0.105 in series [1] (pH 6); 0.24 in series [1] (pH 6, modulator: ogerin); 0.121 in series [1] (pH 6.5, modulator: ogerin). Moreover, the surface expression score in series [2] was found to be 1.22.
Consider Q206S, for which the cAMP reporter score in series [1] (pH 5.5) is -0.322; in series [1] (pH 6, modulator: ogerin) it was -0.1; in series [1] (pH 6.5, modulator: ogerin), 1.37. In addition, the surface expression score in series [2] is 0.52.
Q206T: the cAMP reporter score is -0.171 in series [1] (pH 5.5); 0.273 in series [1] (pH 6); 0.012 in series [1] (pH 6, modulator: ogerin); 0.257 in series [1] (pH 6.5, modulator: ogerin). Moreover, in series [2], the surface expression score was -0.022.
Take Q206F: the cAMP reporter score in series [1] (pH 5.5) was -0.02; in series [1] (pH 6), -0.96; in series [1] (pH 6, modulator: ogerin), 0.214; in series [1] (pH 6.5, modulator: ogerin) it was -0.26. Moreover, the surface expression score in series [2] was 1.03.
As to Q206M, the cAMP reporter score in series [1] (pH 5.5) was 0.132; in series [1] (pH 6, modulator: ogerin), 0.506; in series [1] (pH 6.5, modulator: ogerin) it was 0.385. The surface expression score in series [2] amounted to 0.826.
For the variant Q206N, the cAMP reporter score in series [1] (pH 5.5) stood at 0.992; in series [1] (pH 6) it was 1.75; in series [1] (pH 6, modulator: ogerin), 1.34; in series [1] (pH 6.5, modulator: ogerin), 1.06. Also, the surface expression score in series [2] was -0.285.
Regarding Q206V, the cAMP reporter score in series [1] (pH 5.5) was determined as 1.69; in series [1] (pH 6, modulator: ogerin) it was 1.75; in series [1] (pH 6.5, modulator: ogerin), 1.87. The surface expression score in series [2] was 2.1.
With Q206D, the cAMP reporter score in series [1] (pH 5.5) is 0.279; in series [1] (pH 6) it was -0.326; in series [1] (pH 6, modulator: ogerin), 0.106; in series [1] (pH 6.5, modulator: ogerin), -0.846. For the same variant, the surface expression score in series [2] is -0.338.
In the case of Q206P, the cAMP reporter score in series [1] (pH 5.5) was -0.156; in series [1] (pH 6) it was -1.21; in series [1] (pH 6, modulator: ogerin), -0.674; in series [1] (pH 6.5, modulator: ogerin), -0.438.
